Results from paper PMC12820563.
This is one part of the list. The list includes weakly bound sequences.

molecular target: T1, MBP-FoxP3dN (UniProt Q99JB6); assay: PD-seq (MBP pull-down with sequencing); details: 20 mM Tris-HCl pH 7.5, 100 mM NaCl, 1.5 mM MgCl2, 0.4 uM protein, 0.1 uM dsDNA library, 30 min, room temperature, amylose pull-down; high values mean tight binding; double strand, one strand shown
T1 sequence: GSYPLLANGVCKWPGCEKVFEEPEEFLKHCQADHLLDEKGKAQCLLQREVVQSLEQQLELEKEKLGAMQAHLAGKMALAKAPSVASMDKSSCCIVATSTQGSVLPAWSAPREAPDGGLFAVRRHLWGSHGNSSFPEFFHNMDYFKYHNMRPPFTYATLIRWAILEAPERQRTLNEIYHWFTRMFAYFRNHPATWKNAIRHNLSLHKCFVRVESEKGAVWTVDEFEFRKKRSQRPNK

| Sequence | binding signal (RPM ratio (pull-down/input)) |
| --- | --- |
| GATGATTGTTCTCCCAGCTGATGAATTGAGTAGATCGAGTAAACAAATTTTCCTAATCTTTCTGTTCAAGCGCCATCTAC | 0.386 |
| GATGATTGTTCTCCCAGCTGATGAATTACGGGACTCGAGTAAACAAATTTTCCTAATCTTTCTGTTCAAGCGCCATCTAC | 0.382 |
| GATGATTGTTCTCCCAGCTGATGAATTAAGGGGATCGAGTAAACAAATTTTCCTAATCTTTCTGTTCAAGCGCCATCTAC | 0.31 |
| GATGATTGTTCTCCCAGCTGATGAATTGTAAGGCTCGAGTAAACAAATTTTCCTAATCTTTCTGTTCAAGCGCCATCTAC | 0.367 |
| GATGATTGTTCTCCCAGCTGATGAATTGGTGCCATCGAGTAAACAAATTTTCCTAATCTTTCTGTTCAAGCGCCATCTAC | 2.34 |
| GATGATTGTTCTCCCAGCTGATGAATTCAAGAAGTCGAGTAAACAAATTTTCCTAATCTTTCTGTTCAAGCGCCATCTAC | 0.167 |
| GATGATTGTTCTCCCAGCTGATGAATTAGGATCTTCGAGTAAACAAATTTTCCTAATCTTTCTGTTCAAGCGCCATCTAC | 0.326 |
| GATGATTGTTCTCCCAGCTGATGAATTCGGCTTCTCGAGTAAACAAATTTTCCTAATCTTTCTGTTCAAGCGCCATCTAC | 1.85 |
| GATGATTGTTCTCCCAGCTGATGAATTTGGGAATTCGAGTAAACAAATTTTCCTAATCTTTCTGTTCAAGCGCCATCTAC | 0.843 |
| GATGATTGTTCTCCCAGCTGATGAATTCGACTCGTCGAGTAAACAAATTTTCCTAATCTTTCTGTTCAAGCGCCATCTAC | 0.435 |
| GATGATTGTTCTCCCAGCTGATGAATTTGACCAATCGAGTAAACAAATTTTCCTAATCTTTCTGTTCAAGCGCCATCTAC | 0.253 |
| GATGATTGTTCTCCCAGCTGATGAATTCTAGGCATCGAGTAAACAAATTTTCCTAATCTTTCTGTTCAAGCGCCATCTAC | 0.591 |
| GATGATTGTTCTCCCAGCTGATGAATTGGCCGCTTCGAGTAAACAAATTTTCCTAATCTTTCTGTTCAAGCGCCATCTAC | 0.415 |
| GATGATTGTTCTCCCAGCTGATGAATTGCACATTTCGAGTAAACAAATTTTCCTAATCTTTCTGTTCAAGCGCCATCTAC | 1.41 |
| GATGATTGTTCTCCCAGCTGATGAATTGTGTACATCGAGTAAACAAATTTTCCTAATCTTTCTGTTCAAGCGCCATCTAC | 3.98 |
| GATGATTGTTCTCCCAGCTGATGAATTACGGGTATCGAGTAAACAAATTTTCCTAATCTTTCTGTTCAAGCGCCATCTAC | 0.8 |
| GATGATTGTTCTCCCAGCTGATGAATTCGACAAATCGAGTAAACAAATTTTCCTAATCTTTCTGTTCAAGCGCCATCTAC | 0.274 |
| GATGATTGTTCTCCCAGCTGATGAATTACATAACTCGAGTAAACAAATTTTCCTAATCTTTCTGTTCAAGCGCCATCTAC | 0.577 |
| GATGATTGTTCTCCCAGCTGATGAATTTTCGTAATCGAGTAAACAAATTTTCCTAATCTTTCTGTTCAAGCGCCATCTAC | 0.8 |
| GATGATTGTTCTCCCAGCTGATGAATTATACCAATCGAGTAAACAAATTTTCCTAATCTTTCTGTTCAAGCGCCATCTAC | 0.472 |
| GATGATTGTTCTCCCAGCTGATGAATTAAGACTTTCGAGTAAACAAATTTTCCTAATCTTTCTGTTCAAGCGCCATCTAC | 1.06 |

| Sequence | binding signal (RPM ratio (pull-down/input)) |
| --- | --- |
| GATGATTGTTCTCCCAGCTGATGAATTCCACTGATCGAGTAAACAAATTTTCCTAATCTTTCTGTTCAAGCGCCATCTAC | 0.292 |
| GATGATTGTTCTCCCAGCTGATGAATTGTAGACGTCGAGTAAACAAATTTTCCTAATCTTTCTGTTCAAGCGCCATCTAC | 0.433 |
| GATGATTGTTCTCCCAGCTGATGAATTCTCCGGTTCGAGTAAACAAATTTTCCTAATCTTTCTGTTCAAGCGCCATCTAC | 0.219 |
| GATGATTGTTCTCCCAGCTGATGAATTTACCTCATCGAGTAAACAAATTTTCCTAATCTTTCTGTTCAAGCGCCATCTAC | 0.66 |
| GATGATTGTTCTCCCAGCTGATGAATTCAACTCATCGAGTAAACAAATTTTCCTAATCTTTCTGTTCAAGCGCCATCTAC | 0.429 |
| GATGATTGTTCTCCCAGCTGATGAATTTATTTTCTCGAGTAAACAAATTTTCCTAATCTTTCTGTTCAAGCGCCATCTAC | 5.54 |
| GATGATTGTTCTCCCAGCTGATGAATTCTGAGATTCGAGTAAACAAATTTTCCTAATCTTTCTGTTCAAGCGCCATCTAC | 0.498 |
| GATGATTGTTCTCCCAGCTGATGAATTTGGGCGTTCGAGTAAACAAATTTTCCTAATCTTTCTGTTCAAGCGCCATCTAC | 1.22 |
| GATGATTGTTCTCCCAGCTGATGAATTGCCACAGTCGAGTAAACAAATTTTCCTAATCTTTCTGTTCAAGCGCCATCTAC | 0.98 |
| GATGATTGTTCTCCCAGCTGATGAATTTACTTTATCGAGTAAACAAATTTTCCTAATCTTTCTGTTCAAGCGCCATCTAC | 0.951 |
| GATGATTGTTCTCCCAGCTGATGAATTCAGAATCTCGAGTAAACAAATTTTCCTAATCTTTCTGTTCAAGCGCCATCTAC | 1.15 |
| GATGATTGTTCTCCCAGCTGATGAATTCATTGACTCGAGTAAACAAATTTTCCTAATCTTTCTGTTCAAGCGCCATCTAC | 1.49 |
| GATGATTGTTCTCCCAGCTGATGAATTTTCTCTCTCGAGTAAACAAATTTTCCTAATCTTTCTGTTCAAGCGCCATCTAC | 0.251 |
| GATGATTGTTCTCCCAGCTGATGAATTAAAACCGTCGAGTAAACAAATTTTCCTAATCTTTCTGTTCAAGCGCCATCTAC | 0.225 |
| GATGATTGTTCTCCCAGCTGATGAATTCGAAACATCGAGTAAACAAATTTTCCTAATCTTTCTGTTCAAGCGCCATCTAC | 0.645 |
| GATGATTGTTCTCCCAGCTGATGAATTTGCACGATCGAGTAAACAAATTTTCCTAATCTTTCTGTTCAAGCGCCATCTAC | 0.449 |
| GATGATTGTTCTCCCAGCTGATGAATTTAGACCCTCGAGTAAACAAATTTTCCTAATCTTTCTGTTCAAGCGCCATCTAC | 0.611 |
| GATGATTGTTCTCCCAGCTGATGAATTCAAGCGCTCGAGTAAACAAATTTTCCTAATCTTTCTGTTCAAGCGCCATCTAC | 0.535 |
| GATGATTGTTCTCCCAGCTGATGAATTCGAGTTTTCGAGTAAACAAATTTTCCTAATCTTTCTGTTCAAGCGCCATCTAC | 0.651 |
| GATGATTGTTCTCCCAGCTGATGAATTTAGAATCTCGAGTAAACAAATTTTCCTAATCTTTCTGTTCAAGCGCCATCTAC | 1.63 |
| GATGATTGTTCTCCCAGCTGATGAATTGGATTTCTCGAGTAAACAAATTTTCCTAATCTTTCTGTTCAAGCGCCATCTAC | 0.846 |

| Sequence | binding signal (RPM ratio (pull-down/input)) |
| --- | --- |
| GATGATTGTTCTCCCAGCTGATGAATTATCTGTTTCGAGTAAACAAATTTTCCTAATCTTTCTGTTCAAGCGCCATCTAC | 0.451 |
| GATGATTGTTCTCCCAGCTGATGAATTGGGGCAATCGAGTAAACAAATTTTCCTAATCTTTCTGTTCAAGCGCCATCTAC | 1.53 |
| GATGATTGTTCTCCCAGCTGATGAATTTACCCTGTCGAGTAAACAAATTTTCCTAATCTTTCTGTTCAAGCGCCATCTAC | 0.384 |
| GATGATTGTTCTCCCAGCTGATGAATTGCTTAACTCGAGTAAACAAATTTTCCTAATCTTTCTGTTCAAGCGCCATCTAC | 0.498 |
| GATGATTGTTCTCCCAGCTGATGAATTTTAAAATTCGAGTAAACAAATTTTCCTAATCTTTCTGTTCAAGCGCCATCTAC | 0.216 |
| GATGATTGTTCTCCCAGCTGATGAATTTTTCTTTTCGAGTAAACAAATTTTCCTAATCTTTCTGTTCAAGCGCCATCTAC | 0.256 |
| GATGATTGTTCTCCCAGCTGATGAATTTTAGACCTCGAGTAAACAAATTTTCCTAATCTTTCTGTTCAAGCGCCATCTAC | 0.262 |
| GATGATTGTTCTCCCAGCTGATGAATTGAGCTCATCGAGTAAACAAATTTTCCTAATCTTTCTGTTCAAGCGCCATCTAC | 0.404 |
| GATGATTGTTCTCCCAGCTGATGAATTTATGATATCGAGTAAACAAATTTTCCTAATCTTTCTGTTCAAGCGCCATCTAC | 1.11 |
| GATGATTGTTCTCCCAGCTGATGAATTAGTGTCTTCGAGTAAACAAATTTTCCTAATCTTTCTGTTCAAGCGCCATCTAC | 2.04 |
| GATGATTGTTCTCCCAGCTGATGAATTTAGCATATCGAGTAAACAAATTTTCCTAATCTTTCTGTTCAAGCGCCATCTAC | 3.03 |
| GATGATTGTTCTCCCAGCTGATGAATTGAGAGAATCGAGTAAACAAATTTTCCTAATCTTTCTGTTCAAGCGCCATCTAC | 0.214 |
| GATGATTGTTCTCCCAGCTGATGAATTTGTAGACTCGAGTAAACAAATTTTCCTAATCTTTCTGTTCAAGCGCCATCTAC | 3.06 |
| GATGATTGTTCTCCCAGCTGATGAATTTCAGCGGTCGAGTAAACAAATTTTCCTAATCTTTCTGTTCAAGCGCCATCTAC | 0.296 |
| GATGATTGTTCTCCCAGCTGATGAATTCTCATTCTCGAGTAAACAAATTTTCCTAATCTTTCTGTTCAAGCGCCATCTAC | 0.373 |
| GATGATTGTTCTCCCAGCTGATGAATTTGCGAGGTCGAGTAAACAAATTTTCCTAATCTTTCTGTTCAAGCGCCATCTAC | 0.628 |
| GATGATTGTTCTCCCAGCTGATGAATTATTATCTTCGAGTAAACAAATTTTCCTAATCTTTCTGTTCAAGCGCCATCTAC | 0.879 |
| GATGATTGTTCTCCCAGCTGATGAATTCTTCCTATCGAGTAAACAAATTTTCCTAATCTTTCTGTTCAAGCGCCATCTAC | 0.273 |
| GATGATTGTTCTCCCAGCTGATGAATTTAAGGGCTCGAGTAAACAAATTTTCCTAATCTTTCTGTTCAAGCGCCATCTAC | 0.223 |
| GATGATTGTTCTCCCAGCTGATGAATTGTGGCCATCGAGTAAACAAATTTTCCTAATCTTTCTGTTCAAGCGCCATCTAC | 2.14 |
| GATGATTGTTCTCCCAGCTGATGAATTTCTTACGTCGAGTAAACAAATTTTCCTAATCTTTCTGTTCAAGCGCCATCTAC | 0.257 |
